{"source": "PubChem BioAssay AID504832", "about": "(National Center for Advancing Translational Sciences (NCATS), 2011)", "note": "Hit rate of the full screen: of about 310,000 compounds, about 18,000 (5.8%) were called active. Inconclusive means that the source gave no clear call. Such entries were picked first, then a sample of the others. The call rests on the fitted dose curve; in most records, active means well fitted inhibition curve with a large enough effect; inconclusive means small, poorly fitted or top-dose-only effect, or another doubt; inactive means no such curve, though single readings can be large or run the other way. Potencies of inconclusive entries are left out as doubtful fits. Potency means the concentration at half of the fitted maximal effect; tags describe the fitted curve by direction and shape."}
{"assay": "Primary qHTS for delayed death inhibitors of the malarial parasite plastid, 48 hour incubation", "settings": "P. falciparum luciferase growth in erythrocytes; series mostly up to 28.7 µM", "in_short": "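Read-out is firefly luciferase luminescence from an integrated reporter in P. falciparum, so falling signal marks reduced parasite growth. Infected erythrocytes were at 2% hematocrit and 0.1% parasitemia (final) in Albumax-supplemented RPMI 1640.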"}
{"smiles": "CCOc1ccccc1N1CCN(C(=O)c2cc3ccccc3cc2OC)CC1", "Potency": "inactive"}
{"smiles": "CCOC(=O)c1c(NS(=O)(=O)c2cccc(OC)c2)sc2c1CCC2", "Potency": "inconclusive [inhibitor, single point]"}
{"smiles": "O=C1C(Cl)=C(Nc2ccc(O)cc2)C(=O)c2ccccc21", "Potency": "inconclusive [inhibitor, full curve, poor fit]"}
{"smiles": "COc1cc(C#Cc2c(C=O)n(C)c3ccccc23)cc(OC)c1", "Potency": "inconclusive [inhibitor, single point]"}
{"smiles": "COc1ccc(C(C)=O)cc1CSc1nc2ccccc2c(=O)n1-c1ccccc1C", "Potency": "active: 11.7 µM"}
{"smiles": "CCSc1oc(-c2ccco2)nc1S(=O)(=O)c1ccc(C)cc1", "Potency": "inconclusive [inhibitor, partial curve]"}
{"smiles": "O=C(CN(c1ccccc1)S(=O)(=O)c1ccc(F)cc1)NC1CCS(=O)(=O)C1", "note": "(centres undefined)", "Potency": "inactive"}
{"smiles": "CCOC(=O)c1ccc(N2Cc3ccccc3C2=NC(=O)c2ccncc2)cc1", "Potency": "inconclusive [inhibitor, partial curve, poor fit]"}
{"smiles": "COc1cc(/C=C2/CCc3ccccc3C2=O)cc(OC)c1OC", "Potency": "inconclusive [inhibitor, single point]"}
{"smiles": "O=[N+]([O-])c1ccc2c(c1Nc1ccccc1)=NC1(CCCCC1)N=2", "Potency": "inactive"}
{"smiles": "CSCc1ccc(C(=O)Nc2cccc(C)c2C)cc1", "Potency": "inactive"}
{"smiles": "CCOC(=O)C1=CC[C@@H](c2ccccc2Cl)N(S(=O)(=O)c2ccc(C)cc2)[C@H]1C(=O)OCC", "Potency": "active: 13.1 µM"}
{"smiles": "Cc1cc(C(=O)COc2ccc(C#N)cc2)c(C)n1-c1ccc2c(c1)OCO2", "Potency": "inconclusive [inhibitor, single point]"}
{"smiles": "COc1cc(CCCN2C(=O)C(=O)NC[C@@H]2CC2CCCCC2)cc(OC)c1OC", "Potency": "inconclusive [inhibitor, single point]"}
{"smiles": "Cc1onc(-c2c(F)cccc2Cl)c1C(=O)OCC(=O)NCc1ccccc1", "Potency": "inconclusive [inhibitor, partial curve]"}
{"smiles": "CC(=O)c1ccc(S(=O)(=O)N(C)C(C)CCc2ccco2)cc1", "note": "(centres undefined)", "Potency": "inactive"}
{"smiles": "CCCCNC(=O)c1ccc(CNc2c(N3CCC(C(=O)OCC)CC3)c(=O)c2=O)cc1", "Potency": "active: 11.7 µM"}
{"smiles": "O=C(c1n[nH]c2ccccc12)N1CCN(S(=O)(=O)c2ccc3ccccc3c2)CC1", "Potency": "inconclusive [inhibitor, single point]"}
{"smiles": "COc1ccc(Nc2oc(COc3ccc(Cl)cc3)nc2C#N)cc1", "Potency": "inconclusive [inhibitor, single point]"}
{"smiles": "O=C(NCc1cccs1)C1CCC(=O)N(Cc2cccc(C(F)(F)F)c2)C1", "note": "(centres undefined)", "Potency": "inconclusive [inhibitor, full curve, poor fit]"}
{"smiles": "Cc1ccc2cc(CCNC(=O)c3ccco3)c(=O)[nH]c2c1", "Potency": "inactive"}
{"smiles": "COCCNC(=S)NC(=O)CC12CC3CC(CC(C3)C1)C2", "Potency": "inconclusive [inhibitor, partial curve]"}
{"smiles": "O=C(NCc1ccco1)c1ccc(NC(=O)C2COc3ccccc3O2)cc1", "note": "(centres undefined)", "Potency": "inconclusive [inhibitor, partial curve, poor fit]"}
{"smiles": "COc1ccc2nc(NC(=O)c3cccc(S(=O)(=O)N4CCOCC4)c3)sc2c1", "Potency": "inactive"}
{"smiles": "CCc1ccccc1NC(=O)C1COc2ccccc2O1", "note": "(centres undefined)", "Potency": "inconclusive [inhibitor, full curve, poor fit]"}
{"smiles": "Cc1cccc(-c2noc(-c3ccoc3C)n2)c1", "Potency": "inactive"}
{"smiles": "COc1cccc(C(=O)Nc2nnc(SCC(=O)NC3CCCC3)s2)c1", "Potency": "inactive"}
{"smiles": "CC(=O)N(C)c1ccc(OCC(O)CN(Cc2ccco2)S(=O)(=O)c2ccc(C)cc2)cc1", "note": "(centres undefined)", "Potency": "inconclusive [inhibitor, single point]"}
{"smiles": "COC(=O)c1ccc(NC(=O)CN2C(=O)CC(C)S(=O)(=O)c3ccccc32)cc1", "note": "(centres undefined)", "Potency": "inactive"}
{"smiles": "COc1ccc(Cl)cc1NCC(=O)Nc1ccc(OC)c(S(=O)(=O)N2CCCCC2)c1", "Potency": "active: 9.28 µM"}
{"smiles": "COc1ccc2oc(/C=C/N(C)C)c(C(=O)c3ccc(Cl)cc3)c2c1", "Potency": "inconclusive [inhibitor, partial curve, poor fit]"}
{"smiles": "CN1CCN(CCOC2c3ccccc3CSc3ccc(Cl)cc32)CC1", "note": "(centres undefined)", "Potency": "inconclusive [inhibitor, single point]"}
{"smiles": "COC(=O)c1ccccc1NC(=O)NCc1ccccn1", "Potency": "inconclusive [inhibitor, single point]"}
{"smiles": "CCc1ccc2c(c1)C(c1ccc(N3CCOCC3)cc1)=NNC(c1ccncc1)=N2", "Potency": "inconclusive [inhibitor, single point]"}
{"smiles": "Cc1sc2ncnc(NCC(c3ccco3)N3CCCC3)c2c1C", "note": "(centres undefined)", "Potency": "active: 10.4 µM"}
{"smiles": "O=C(COc1ccccc1[N+](=O)[O-])N1CCC(Cc2ccccc2)CC1", "Potency": "inactive"}
{"smiles": "COc1ccc(C2=NN(C(=O)c3ccncc3)C(c3ccccc3O)C2)cc1", "note": "(centres undefined)", "Potency": "inconclusive [inhibitor, partial curve, poor fit]"}
{"smiles": "COc1cccc(-c2noc(CCCC(=O)NC3CCCC3)n2)c1", "Potency": "inactive"}
{"smiles": "COc1cccc(CN2CCN(Cc3cc(OC)c(OC)cc3[N+](=O)[O-])CC2)c1", "Potency": "inconclusive [inhibitor, single point]"}
{"smiles": "CCOc1ccccc1C(=O)Nc1cccc(-c2ccc(N3CCOCC3)nn2)c1", "Potency": "inconclusive [inhibitor, single point]"}
{"smiles": "CC1CCCN(C(=O)C2CCN(S(=O)(=O)c3ccc4c(c3)CC(C)N4C(=O)C3CC3)CC2)C1", "note": "(centres undefined)", "Potency": "inconclusive [inhibitor, single point]"}
{"smiles": "Cc1ccc(/C=N/NC(=O)c2ccncc2)s1", "Potency": "inconclusive [inhibitor, partial curve, poor fit]"}
{"smiles": "C=Cn1ccnc1P(=S)(c1c(C)nn(-c2ccccc2)c1C)c1nccn1C=C", "Potency": "inconclusive [inhibitor, single point]"}
{"smiles": "Cn1c(=O)c(/C(N)=N/OC(=O)c2ccccc2)cn(-c2ccccc2)c1=O", "Potency": "inconclusive [inhibitor, single point]"}
